# Laboratory results from the supplement of paper PMC5499739.
# Over roughly 16,000 sequences, “Z-score” has its median near -0.37; the highest 2% begin near 3.2. Some of the results follow.
# Test system: RBM10 RRM1-ZnF (GST-tagged construct)
# Experiment: RNAcompete 7-mer binding Z-score; higher = stronger binding preference
# Outline: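 A designed pool of 241 399 RNAs, each up to 41 nt and transcribed from microarray-derived DNA templates, was used at 1.5 nmol with 20 pmol of GST-tagged RBM10 constructs. The mixture, in 1 ml Hepes pH 7.8 buffer with KCl, NaCl, glycerol, DTT, BSA and glutathione Sepharose beads, was held 30 min at 4°C and then washed four times for 2 min at 4°C. Bound RNA was read out by microarray hybridisation, and enrichment of each heptamer motif was scored as a one-sided Z-score over the probes carrying it.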
row,Sequence,RNAcompete 7-mer binding Z-score
1,AUAGUGA,0.67
2,CCCGUGU,-0.285
3,UGGCUGC,0.0788
4,CCAAACG,-0.396
5,UAGUACA,-0.162
6,GUCGUUU,-0.145
7,GCAGAAA,0.387
8,GACUGGC,-0.00246
9,UUCAUAG,-0.659
10,UGAUCGA,-0.23
11,AACCGGU,-0.149
12,GAGUUUU,-0.0382
13,UUUAGGC,-0.321
14,AACUUUC,-0.85
15,CUAUGAG,-0.233
16,CCUACCU,-0.766
17,GGGGCAA,2.79
18,UAGCUCC,-0.672
19,UGUACGC,-0.022
20,UCCCCUG,-0.158
21,CUCCGCG,-0.477
22,AAGGCUG,0.859
23,AUCUGAU,-0.668

row,Sequence,RNAcompete 7-mer binding Z-score
1,UUGUGGC,0.0788
2,AUGAUGG,2.89
3,GACGGCG,0.673
4,CCGCUUG,-0.665
5,GGGUCAU,1.32
6,CACACUC,-0.604
7,GAGCUGC,-0.0414
8,GGAUCCG,0.342
9,CUUGAAA,-0.584
10,GGAACAU,0.524
11,AAUGUUA,-0.175
12,CCGUCUG,-0.694
13,CGGUGAU,0.586
14,UGUACUA,-0.415
15,CCCUAAG,-0.493
16,AAAGAGG,1.51
17,CAAACGC,-0.626
18,AACGACG,-0.279
19,CCUCCAU,-0.805
20,GAUAUAG,0.592
21,CUGCGUC,-0.591
22,CGUAUGC,-0.542
23,ACUCUAU,-0.847

row,Sequence,RNAcompete 7-mer binding Z-score
1,GGGGAUU,2.75
2,UUGGGAA,2.12
3,CUCGGCA,-0.613
4,ACACCUC,-0.685
5,GCAAGGG,3.46
6,GACAACC,-0.428
7,CAAAGGU,1.15
8,CUUAAAU,-0.629
9,GUGCCUA,-0.308
10,CCAGUCG,-0.457
11,UUCUGCA,-0.75
12,AUACGAC,-0.422
13,UGUGAUC,-0.34
14,CCUCCUG,-0.746
15,UUUAGUA,-0.558
16,CUUACUU,-0.798
17,CAAUAUU,-0.711
18,UGCCGAG,-0.158
19,CCUUGUA,-0.733
20,CUAGGUG,0.719
21,CUAUGGG,1.13
22,ACAUGGC,0.192
23,UACCAAU,-0.727

row,Sequence,RNAcompete 7-mer binding Z-score
1,UGAUGAG,0.573
2,CUGUGCU,-0.782
3,CUAGGGG,2.46
4,AUCGCUC,-0.678
5,GGCCCCG,0.176
6,UGAAUGG,2.5
7,GGAAGCG,2.9
8,CGUAGGU,0.949
9,UCUCUUU,-0.841
10,CAGGGGU,3.01
11,UAGAGAU,0.27
12,UGCAUGU,-0.217
13,AGCCCAG,-0.181
14,UAACCGG,-0.285
15,CGAAUUA,-0.467
16,UCUGUAG,-0.467
17,UGAAGCC,-0.48
18,AGUGCCA,-0.35
19,AUUAAAC,-0.636
20,ACUUGGA,0.313
21,GACCUAU,-0.863
22,UGGUGCC,0.433
